Reference: PubChem BioAssay AID1645882 (National Center for Advancing Translational Sciences (NCATS), 2021)
In all, about 16,000 compounds went through this assay and about 120 (0.75%) were called active. About 4% were inconclusive and are not listed. Calls come from the whole dose curve; as a rule, active = well fitted inhibition curve with a large enough effect; inconclusive = small, poorly fitted or top-dose-only effect; inactive = no such curve, though single readings can be large or run the other way. The list shows a part of the results.

These molecules were tested against Rap guanine nucleotide exchange factor 3 (Homo sapiens) (UniProt O95398) (assay: Validation qHTS for antagonist of cAMP-regulated guanine nucleotide exchange factor 3 (EPAC1)). Conditions: EPAC1 Rap1B-BODIPY-GDP exchange, fluorescence; series mostly up to 150 µM; activity change, negative = inhibition: at the top concentration.
Summary of the method: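 EPAC1 (100 nM) mixed with 250 nM RAP1B-BODIPY-GDP and 50 uM GDP; compounds in concentration series, 5 min at room temperature. Fluorescence (ex 480/em 540 nm) read every 5 min for 30 min; normalized to ATA control and DMSO.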
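Note: plate controls were DMSO for no effect and ATA control for full effect; nearly all actives have a fitted effect of over 75% in size.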

Sequence of UniProt O95398 (O95398 whole entry, looked up): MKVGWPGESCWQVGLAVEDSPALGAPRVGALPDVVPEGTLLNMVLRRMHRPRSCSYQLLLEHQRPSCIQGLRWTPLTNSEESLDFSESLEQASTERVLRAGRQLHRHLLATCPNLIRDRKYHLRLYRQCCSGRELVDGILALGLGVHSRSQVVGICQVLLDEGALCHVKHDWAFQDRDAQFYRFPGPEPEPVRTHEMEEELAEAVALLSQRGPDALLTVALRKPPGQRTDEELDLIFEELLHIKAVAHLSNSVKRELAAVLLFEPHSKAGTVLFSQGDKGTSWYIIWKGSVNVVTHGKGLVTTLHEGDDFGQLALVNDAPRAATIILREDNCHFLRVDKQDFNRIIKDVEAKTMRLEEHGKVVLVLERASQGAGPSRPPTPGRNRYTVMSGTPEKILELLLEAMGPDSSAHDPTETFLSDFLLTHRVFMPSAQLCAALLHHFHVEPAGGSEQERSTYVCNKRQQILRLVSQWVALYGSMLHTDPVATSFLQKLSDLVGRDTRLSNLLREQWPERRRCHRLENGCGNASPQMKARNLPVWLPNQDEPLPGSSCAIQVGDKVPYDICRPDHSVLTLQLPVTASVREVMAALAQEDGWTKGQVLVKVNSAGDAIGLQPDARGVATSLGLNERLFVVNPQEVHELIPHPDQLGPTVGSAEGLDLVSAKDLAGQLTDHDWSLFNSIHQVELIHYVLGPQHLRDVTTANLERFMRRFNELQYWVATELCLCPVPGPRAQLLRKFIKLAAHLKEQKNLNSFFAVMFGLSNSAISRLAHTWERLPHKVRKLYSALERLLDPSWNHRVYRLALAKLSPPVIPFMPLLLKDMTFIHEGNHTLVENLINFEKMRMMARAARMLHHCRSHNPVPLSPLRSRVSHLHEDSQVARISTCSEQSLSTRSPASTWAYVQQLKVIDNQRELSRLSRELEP

Activity change, negative = inhibition, inactive:
COCC(=O)N1CCC2(CCCN(c3ncccn3)C2)CC1 8.37%
Nc1ncn(C2OC(CO)C(O)C2O)c(=O)n1 (centres undefined) 7.41%
C=C1[C@@H]2CC[C@@H](C2)C1(C)C 21.3%
COC1[C@@H](O[C@@H]2O[C@H](C)[C@@H](O[C@H]3C[C@@](C)(O)[C@H](OC(=O)CC(C)C)[C@H](C)O3)[C@H](N(C)C)[C@H]2O)[C@@H](CC=O)C[C@@H](C)[C@@H](O)/C=C/C=C/C[C@@H](C)OC(=O)C[C@H]1OC(C)=O (some centres undefined) 13.8% [at 75.8 µM]
COc1cc2nc(N(C)C)c(CNC3CCOC(C)(C)C3)cc2c(OC)c1OC (centres undefined) 15.1%
O=C(NCc1nnc2n1CCN(Cc1cc3c(cc1Cl)OCO3)CC2)C1CCOC1 (centres undefined) 15.8%
O=c1c(-c2cc(F)cc(F)c2)nc2cnc(Nc3ccccc3)nc2n1C[C@H]1CCCO1 17.7%
CC(=O)Nc1ccc(OC[C@@H](O)CNC(C)C)cc1 15%
O=C(NC(Cc1cc(=O)[nH]c2ccccc12)C(=O)O)c1ccc(Cl)cc1 (centres undefined) 12.1%
COc1cc(O)cc(OC)c1OC -5.52%
CCN1C(=O)C=CC1=O 1.06% [at 75.8 µM]
CC(C)CN1CCC(=O)N([C@H](CO)c2ccccc2)CC1 16.5%
Cc1noc(C)c1-c1ccc2ncnc(NCc3cccnc3)c2c1 1.79%
CC[C@]12CCCN3CCc4c(n(c5ccccc45)C(=O)C1)[C@H]32 0.314%
O=c1c(-c2cc(F)cc(F)c2)nc2cncnc2n1Cc1ccccc1 -6.84%
CS(=O)(=O)N1CCC2(CC1)CN(c1ccncc1)C2 7.42%
COc1ccc2c(c1)NC(=O)C2CC(=O)N1CCOc2c(cc(-c3cnc4ccccc4c3)cc2OC)C1 (centres undefined) 5.78%
CC(CNC(=O)c1cccnc1)NC(=O)c1cccnc1 (centres undefined) 14.6%
CC(C)C1=CC2=CCC3[C@@](C)(CCC[C@@]3(C)C(=O)O)C2CC1 (some centres undefined) -20.2%
CC(C)SC(=N)N 9.66%
O=C(C[n+]1ccccc1Cl)c1cccc([N+](=O)[O-])c1 -5.74%
COc1ccccc1-c1ccnc(-n2ncc(C(=O)N[C@H]3CCCCNC3=O)c2C2CC2)n1 16.1%
CC(=O)N1CCC2(CC1)CCN(c1ccc(-c3ccccc3)cc1)CC2 -3.35%
CN(C)CCc1c[nH]c2ccc(CS(=O)(=O)N3CCCC3)cc12 20.4%
c1cncc(-c2nccc(-n3ccnc3)n2)c1 28.7%
Cc1ncc2c(c1CNC(=O)c1cncs1)CCN(C(=O)c1ccc(-c3ccccc3)cc1)C2 -1.15%
CCC1OC(=O)C(C)[C@@H](O[C@H]2C[C@@](C)(OC)C(O)C(C)O2)C(C)[C@@H](O[C@@H]2OC(C)CC(N(C)C)C2O)[C@](C)(O)CC(C)/C(=N\OCOCCOC)[C@H](C)C(O)[C@]1(C)O (some centres undefined) 28.7%
COc1ccccc1CC(=O)NCC1Cc2cc(F)cc(-c3cncnc3)c2O1 (centres undefined) 1.96%
CN1CCN2c3ccccc3Cc3ccccc3C2C1 (centres undefined)
CN(C)C(=O)c1ccc(-c2ccc3ncnc(N4CCC(C(=O)O)CC4)c3c2)cc1 7.66%
COC1OC2COC(c3ccccc3)OC2C(O)C1O (centres undefined) -11.9%
O=C(c1ccco1)N1CCC[C@@]2(CCN(C(c3ccccc3)c3ccccc3)C2)C1 17.2%
CN(C)C(=O)CCC(=O)NCC1Cc2cccc(-c3ccccc3C(F)(F)F)c2O1 (centres undefined) 15.1%
CCCCCCCCOc1ccccc1C(=O)Nc1ccc(C(=O)OCC[N+](C)(CC)CC)cc1 8.75%
COc1ccc(C(=O)N2CCC3(CCCN(C(=O)Nc4cccc(F)c4)C3)CC2)cc1 17.7%
N[C@@H](Cc1ccc(O)c(O)c1)C(=O)O
O=C1NC2CCCCN2C12CCN(CCCN1c3ccccc3CCc3ccc(Cl)cc31)CC2 (centres undefined) -19.3%
CC(=O)Nc1cc(C(=O)N2CCCC(C)C2)cc2ncn(CCc3ccccn3)c12 (centres undefined) 13%
C[C@@H]1[C@H](c2ccccc2)OCCS(=O)(=O)N1Cc1ccccc1F -0.958%
CCCCc1ncc(/C=C(\Cc2cccs2)C(=O)O)n1Cc1ccc(C(=O)O)cc1 16.3%
CCC(C)C(NC)C(=O)O (centres undefined) 13.8%
O=C1NC(=O)C(Cc2ccccc2F)(C2CCN(Cc3cccn3-c3cccnc3)CC2)N1 (centres undefined) 13.9%
Cc1ccc(C2(O)CCN(CCCC(=O)c3ccc(F)cc3)CC2)cc1 26.2%
COc1ccc(/C=C/C(=O)O)cc1 8.37%
O=C(c1cnccn1)N1CCC2(CC1)CN(c1cccc(-c3ccccc3)c1)C2 1.31%
COc1ccc(-c2coc3cc(O)ccc3c2=O)c(OC)c1 6.84%
Cc1cc(-c2cc(F)cc3c2OC(CNC(=O)CCn2cncn2)C3)ccc1F (centres undefined) 6.14%
COc1ccc(C(=O)N2CCC[C@@]3(CCN(c4ccncc4)C3)C2)cc1 1.63%
O=C(O)CCC(=O)c1ccc(-c2ccccc2)cc1
COc1cc(=O)n2c(c1C(=O)NC(C)c1ccco1)CCN(Cc1ccc3nsnc3c1)CC2 (centres undefined) 12.4%
CCNc1ncc2nc(-c3cc(F)cc(F)c3)c(=O)n(C)c2n1 20.7%
COc1ccc(CN2Cc3cccc4c3[C@@H](CC2=O)[C@H](O)[C@H](O)C4)cc1 -14.4%
O=c1cc(N2CCOCC2)oc2c(-c3ccccc3)cccc12
Oc1cccc2c(CC(O)c3c[nH]c4ccccc34)ccnc12 (centres undefined) -20.5%
O=C(O)C1CN(CCCP(=O)(O)O)CCN1 (centres undefined) 1.24% [at 75.8 µM]
Cc1noc(C)c1C(=O)N1CCC2(CCCN(c3ccncc3)C2)CC1 12.2%
CCOC(N)=O 17%
O=C(c1ccncc1)N1CCC2(CC1)CN(c1ccccn1)C2 4.88%
CO[C@@]1(NC(=O)CSCC#N)C(=O)N2C(C(=O)O)=C(CSc3nnnn3C)CSC21 (some centres undefined) 14.1%
COc1ccc(CN2CCCC(c3nc(C)ncc3-c3ccc(F)cc3)C2)c(OC)c1OC (centres undefined) 0.378%
CCn1c(-c2cccnc2)nc2cc(NC(=O)COC)cc(C(=O)N3CCc4ccccc4C3)c21 6.82%
O=C1c2cccc(O)c2C(=O)c2c(O)cccc21
COCCn1c(=O)c(-c2ccc(OC)cc2)nc2cnc(OCc3ccccc3)nc21 21.2%
Cc1ncc2c(c1CNC(=O)c1cncs1)CCN(C(=O)c1csc(-c3cccs3)n1)C2 24.5%
Cc1ccc(C)c(CN2CCC3(CCC(CNC(=O)c4ccnn4C)O3)CC2)c1 (centres undefined) 12.1%
COCCCOc1ccnc(CS(=O)c2nc3ccccc3[nH]2)c1C (centres undefined) 25.6%
CCOC(=O)N1CCN(Cc2ccc3c(c2)CN(C(=O)c2ccc(C#CC(C)(C)O)o2)CCO3)CC1 11.1%
CC(=O)N=c1sc(S(N)(=O)=O)nn1C
O=c1cnc2cnc(Oc3ccccc3)nc2n1C[C@H]1CCCO1 13%
Cc1ncc2c(c1CNC(=O)CN1CCCCC1)CCN(C(=O)c1ccc(F)cc1Cl)C2 8.68%
O=C(C1CCCCC1)N1CCOc2ccc(CN3CCN(Cc4ccccn4)CC3)cc2C1 4.14%
CC(C)NNC(=O)c1ccncc1
Cc1[nH]c2c(C(=O)NCC3Cc4cccc(-c5cccnc5)c4O3)cccc2c1C (centres undefined) 8.57%
COc1ccccc1CNC(=O)c1cnn(-c2nccc(-c3cccs3)n2)c1C -11.1%
COc1cccc(Nc2ncc3ncc(=O)n(Cc4cccs4)c3n2)c1 -19.5%
COc1ccccc1-c1cc(NCc2cccs2)ncn1 6.11%
O=C(O)c1cc(=O)c2ccccc2[nH]1
Cc1ccccc1-c1ccc2ncnc(N3CCNCC3)c2c1 22.4%
O=C(NCCNC[C@@H](O)COc1ccc(O)cc1)N1CCOCC1 3.33%
O=C1c2ccccc2C(=O)c2cc(Cn3cc(-c4cccc(C(F)(F)F)c4)nn3)ccc21 -13.3%
CC(=O)O[C@@H]1CC2C(C)(C)C(=O)C=C[C@]2(C)C2CC[C@]3(C)C(=CC[C@H]3C3CO[C@@H](C(C)(C)O)[C@H](O)C3)[C@@]21C (some centres undefined) 17.5%
COCC(=O)Nc1cc(C(=O)N2CCc3ccccc3C2)c2c(c1)nc(-c1ccncc1)n2C 14.4%
N[C@H](C(=O)O)c1ccc(C(=O)O)c(O)c1
C[C@H](NCCc1ccc(O)cc1)[C@H](O)c1ccc(O)cc1 4.22%
CCCCN1CCC[C@@H]1CNC(=O)c1cc(C#N)c2ccccc2c1OC -15.6%
COCc1c(C(=O)NC2CCCC2)cnn1-c1nccc(-c2cccs2)n1 8.17%
CC(C)NC(=O)N1CCC2(CC1)CCN(C(=O)c1csnn1)CC2 16.6%
COc1ccc(C[C@@H](C)NC[C@H](O)c2ccc(O)c(NC=O)c2)cc1 9.6%
O=C(CCCN1CCC(n2c(=S)[nH]c3ccccc32)CC1)c1ccc(F)cc1 21.9%
C#CC1(O)CC[C@H]2[C@@H]3CCC4=CCCC[C@@H]4[C@H]3CC[C@@]21C (some centres undefined) -22.1% [at 75.8 µM]
COC(=O)[C@@H]1CCCN1Cc1ccc2c(c1)CN(Cc1ccc3c(c1)CCO3)CCO2 5.94%
COc1ncc2nc(-c3cccs3)c(=O)n(CCC#N)c2n1 -1.38%
C=CCNc1ncnc2ccc(Br)cc12 12.2% [at 75.8 µM]
COc1ccc(CNc2ncncc2-c2ccccc2C)c(OC)c1 2.5%
CC(=O)Oc1ccc(C2(c3ccc(OC(C)=O)cc3)Oc3ccccc3NC2=O)cc1 -0.533%
COc1cccc(-c2ccc(O)c(CNCc3cccc4ccccc34)c2)n1 6.13%
COc1cccc(C2(CC(=O)N3CCC(c4nc5ccc(F)cc5[nH]4)CC3)CC(=O)N(C)C2=O)c1 (centres undefined) 13.6%
CC(CN1CCc2nnc(CNC(=O)c3cccc(F)c3)n2CC1)c1ccccc1 (centres undefined) 7.93%
COc1ncc2nc(CCc3ccccc3)c(=O)n(Cc3cccs3)c2n1 3.4%
CCOC(CN1CCN(CC(C)C(=O)c2ccccc2)CC1)c1ccccc1 (centres undefined) 10.5%
OCC(CO)N[C@H]1C[C@](O)(CO)[C@@H](O)[C@H](O)[C@H]1O -2.1%
CC(C)[C@H]1COCCS(=O)(=O)N1Cc1ccc(Cl)cc1 7.68%
CCNc1ncc2nc(-c3cccs3)c(=O)n(Cc3cccs3)c2n1 11.2%
COc1cccc2c1CCC1CC(=O)CC[C@@]21C (some centres undefined) -2.15%
